# Laboratory results as given in PubChem BioAssay AID652104 (National Center for Advancing Translational Sciences (NCATS), 2013).
# About 7,200 (1.8%) of roughly 410,000 compounds were called active. Inconclusive results, whose numbers are uncertain, are shown with a selection of clear calls. Calls follow the shape of the dose curve; as a rule, active = well fitted activation curve with a large enough effect; inconclusive = small, poorly fitted or top-dose-only effect, or another doubt; inactive = no such curve, though single readings can be large or run the other way. No potency is given beside an inconclusive call; the fits are too rough.
# Test: qHTS of TDP-43 Inhibitors; also: nearly all actives have a fitted effect of over 50% in size; as to growth rescue (activation): % of control where 0% means no effect
# Settings: TDP-43 expressing yeast growth rescue, BacTiter-Glo, 24 h; growth rescue (activation): at 46.1 µM (top of the series) unless noted
# How it was run: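 Yeast cells expressing TDP-43 under galactose induction are exposed to compounds for 24 hr at 30 deg C. BacTiter-Glo luminescence measures growth, so protective compounds score as activators.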
# Potency is read from the fitted curve at half-maximal effect; tags tell the direction and shape of the fitted curve.
Structure (SMILES),Potency,growth rescue (activation)
COc1ccc(CNC(=O)C(C#N)c2nc3ccccc3nc2N2CCCC2)cc1 (centres undefined),inactive,
CCc1ccccc1NCC(=O)Nc1ccccc1C(=O)OC,"inconclusive [activator, partial curve]",
COc1cccc(C(c2sc3nc(C)nn3c2O)N2CCN(c3ccccc3F)CC2)c1 (centres undefined),inactive,
c1ccc(-c2c[nH]c(-c3ccccc3)c2)cc1,"inconclusive [activator, full curve]",
Cc1ccsc1C(=O)OCC(=O)Nc1ccc(Cl)cc1C(F)(F)F,"inconclusive [activator, single point]",
CCOc1ncccc1C(=O)OCc1cn2cc(Cl)ccc2n1,"inconclusive [activator, single point]",
O=C(NCCc1ccc(Cl)cc1)c1cccc(N2CCCC2=O)c1,"inconclusive [activator, partial curve, poor fit]",
O=C(O)C1=CC[C@@H](c2ccc(Cl)cc2)N(S(=O)(=O)c2ccc(Cl)cc2)[C@H]1c1ccc(Br)cc1,"inconclusive [activator, partial curve, poor fit]",
CC1(C(=O)Nc2cccc(C#N)c2)CCN1C(=O)C1(c2ccccc2)CC1 (centres undefined),"inconclusive [activator, full curve]",
Cc1cccc(C(=O)NCCc2sc(-c3ccccc3)nc2C)c1,"inconclusive [activator, single point]",
CC(=O)Nc1cccc(-c2csc(C(C)(O)c3ccc(F)c(F)c3)n2)c1 (centres undefined),"inconclusive [activator, full curve, poor fit]",
O=C(NN=C1c2ccccc2-c2ccccc21)c1ccccc1,inactive,
COc1cc(NC(=O)c2cc(Cl)c(OC)c(Cl)c2)ccc1NC(=O)c1cc2ccccc2o1,inactive,
COc1ccc(C(=O)/C=C/c2ccc(O)cc2)cc1,"inconclusive [activator, single point]",
Cc1ccc(C)c(C(=O)CSc2nnnn2-c2cccnc2)c1,active: 11.2 µM,
COc1ccc2occ(NC(C)=O)c2c1,"inconclusive [activator, single point]",
Cc1cc(C(=O)Nc2ccc(Cl)cc2)c(C)n1Cc1cccs1,"inconclusive [activator, single point]",
COc1cccc(N2CCN(C(=S)Nc3ccccc3)CC2)c1,"inconclusive [activator, partial curve]",
O=C1N[C@H](Cc2ccccc2)COC(=O)[C@H](Cc2ccc(F)cc2)C/C=C\C[C@H]1CC(=O)N(CCO)Cc1ccccc1,"inconclusive [activator, partial curve]",
COc1ccc(CC(=O)Nc2ccccc2C(=O)NCCc2ccccc2)cc1,"inconclusive [activator, single point]",
CC(Sc1nnc(-c2ccc(O)cc2)o1)C(=O)Nc1cccc2ccccc12 (centres undefined),"inconclusive [activator, partial curve]",
CCOc1ccc(NC(=S)NC(=O)c2c(Cl)cnn2CC)c([N+](=O)[O-])c1,inactive,
COc1cc(NC(=O)c2ccc(OCc3c(C)noc3C)c(OC)c2)cc(OC)c1,"inconclusive [activator, partial curve]",

Structure (SMILES),Potency,growth rescue (activation)
COc1ccc(N2CCN(C(=O)C(Cc3ccccc3)n3cccc3)CC2)cc1 (centres undefined),"inconclusive [activator, partial curve]",
CCN(Cc1ccccc1)C(=O)Cn1c(=O)n(Cc2ccccc2)c(=O)c2c1c1cc(OC)ccc1n2C,inactive,
Cc1cccc(C)c1NC(=O)CN(C)C(=O)Cc1cccc(C(F)(F)F)c1,"inconclusive [activator, partial curve]",
O=C(NCC(c1cccnc1)N1CCN(Cc2ccccc2)CC1)C(=O)Nc1ccc(Cl)cc1 (centres undefined),inactive,
CCOC(=O)C1CCCN(Cc2ccc(-c3ccccc3)cc2)C1 (centres undefined),inactive,
CCc1nn2c(=O)c(S(=O)(=O)Nc3ccc(OC)c(Cl)c3)c(C)nc2s1,inactive,
CCNC(=S)N/N=C/c1cn(Cc2ccccc2F)c2ccccc12,"inconclusive [activator, full curve, poor fit]",
O/N=C/Cc1[nH]c2ccccc2c1-c1ccccc1,active: 15.8 µM,
CN1c2ccccc2-c2nc(SCC(=O)Nc3ccccc3C(F)(F)F)ncc2S1(=O)=O,"inconclusive [activator, partial curve]",
CCc1ccc(NC(=O)CSc2nccn(-c3ccc4c(c3)OCCO4)c2=O)cc1,"inconclusive [activator, single point]",
COc1ccc(C(=O)NCc2ccc3c(c2)CCN3C(=O)c2ccncc2)cc1,inactive,
O=C(Nc1ccc(CN2CCOCC2)cc1)c1ccc(-c2cc(Cl)ccc2Cl)o1,"inconclusive [activator, single point]",
Cc1cccc(N(CC(=O)Nc2ccc(Br)cc2)S(C)(=O)=O)c1C,"inconclusive [activator, single point]",
Cc1nc(CC(=O)Nc2cccc(C)c2C)cs1,inactive,
COc1ccccc1C(=O)NNC(=S)NC(=O)c1cc(OC)c(OC)c(OC)c1,active: 10 µM,
CC(C)(C)C(=O)Nc1ccc(/C=C/C(=O)c2ccco2)cc1,"inconclusive [activator, single point]",
CCOC(=O)[C@]12CCC=C1N(Cc1cccc3ccccc13)C(=O)[C@H](CC(=O)N1CCN(C(=O)c3ccco3)CC1)C2,"inconclusive [activator, partial curve, poor fit]",
CCn1c(SCC(=O)Nc2ccc3c(c2)oc2ccccc23)nnc1-c1ccc(N)cc1,"inconclusive [activator, full curve, poor fit]",
Cc1nc2ccccc2n1CC(O)COc1ccc(C(=O)O)cc1 (centres undefined),inactive,
FC(F)Oc1ccc(-c2csc(NNC3=NCCCCC3)n2)cc1,"inconclusive [activator, single point]",
CCNC(=O)C1(C)CCN(C(=O)c2cccc(C#N)c2)C1 (centres undefined),"inconclusive [activator, partial curve, poor fit]",
COc1ccccc1NC(=O)Cn1nnc(-c2ccccc2NS(=O)(=O)c2ccccc2)n1,inactive,
CCN(Cc1ccc2c(c1)OCCO2)C(=O)CSc1nc(C)nc2sc(C)c(C)c12,"inconclusive [activator, partial curve]",

Structure (SMILES),Potency,growth rescue (activation)
CCc1nc2ccc(C(=O)Nc3cccc(OCC(=O)N(C)C)c3)cn2c1N(C)Cc1ccc(N(C)C)cc1,inactive,
COc1ccccc1NC(=O)CCSc1ccc(C)cc1,"inconclusive [activator, partial curve]",
CC(=O)Nc1cccc(-c2ccnc3c2CC(C)(C(=O)Nc2cccc(C(C)=O)c2)O3)c1 (centres undefined),"inconclusive [activator, partial curve]",
CC(=O)NC(c1ccc(Cl)cc1Cl)c1ccc2cccnc2c1O (centres undefined),active: 31.6 µM,
O=C1C=C(/C=C/C2C=CC=CC2)C[C@@H](c2ccc(Cl)cc2)C1 (some centres undefined),"inconclusive [activator, partial curve]",
S=C(NCCc1ccccc1)Nc1ccc(Br)cc1,"inconclusive [activator, partial curve, poor fit]",
CCNc1nc(Nc2ccc(C)c(Cl)c2)c2cnn(C)c2n1,"inconclusive [activator, single point]",
CCC1CCCCN1C(=S)NC(=O)c1ccc([N+](=O)[O-])cc1 (centres undefined),"inconclusive [activator, partial curve]",
COc1ccc(-n2nc(C(=O)N3CCN(c4ccccc4OC)CC3)c3c4ccccc4n(C)c3c2=O)cc1,"inconclusive [activator, partial curve]",
CC1CCCN(S(=O)(=O)c2ccccc2[N+](=O)[O-])C1 (centres undefined),"inconclusive [activator, partial curve]",
Cc1cc(C)n2c(SCC#N)nnc2n1,inactive,
Cc1ccc(S(=O)(=O)NC(C(=O)Oc2ccc3c(C)c(Cl)c(=O)oc3c2)c2ccccc2)cc1 (centres undefined),"inconclusive [activator, partial curve, poor fit]",
Cc1ccc(/C(N)=N/OC(=O)N2CCOCC2)cc1,inactive,
NC(=O)c1cc([N+](=O)[O-])ccc1NCC1CCCCC1,"inconclusive [activator, single point]",
O=C(Nc1ccc(Cl)cc1)Nc1ccon1,"inconclusive [activator, partial curve]",
OC(COc1cccc2ccccc12)CN1CCOCC1 (centres undefined),inactive,
CCOC(=O)C1CCN(C(=O)c2cc3cc(C)ccc3[nH]2)CC1,"inconclusive [activator, partial curve]",
COC(=O)Cc1ccc(NC(=O)c2ccc3c(c2)C(=O)N(CC2CCCO2)C3=O)cc1 (centres undefined),"inconclusive [activator, partial curve]",
COc1ccc(CNC(=O)COc2cc(O)c3c(c2)OC(C)(C)CC3=O)cc1,active: 11.2 µM,
O=C(NN=C(Cc1ccccc1)Cc1ccccc1)c1ccccc1O,inactive,
O=[N+]([O-])c1ccc2c(c1)Nc1nc3ccccc3nc1N2,active: 22.4 µM,
CCOc1ccc(C(=O)CC(C(=O)O)N2CCN(Cc3ccccc3)CC2)cc1 (centres undefined),"inconclusive [activator, single point]",
COc1ccccc1N(C(C)=O)C1=C(Cl)C(=O)c2ccccc2C1=O,,inconclusive: -89.7% [activator]
